Reference: PubChem BioAssay AID1347417 (National Center for Advancing Translational Sciences (NCATS), 2020)
Screen size: about 120,000 compounds; about 5,300 (4.4%) were called active. Inconclusive results, whose numbers are uncertain, are shown with a selection of clear calls. Calls follow the shape of the dose curve; as a rule, active = well fitted inhibition curve with a large enough effect; inconclusive = small, poorly fitted or top-dose-only effect; inactive = no such curve, though single readings can be large or run the other way. Potencies beside an inconclusive call are fits to weak or partial responses and may not hold up.

Experiment: qHTS Primary assay for Inhibitors of Plasmodium falciparum Dd2 growth in vitro; also: nearly all actives have a fitted effect of over 65% in size;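 as to activity, negative = inhibition: plate controls were DMSO vehicle for no effect and reference drug for full effect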
Details: P. falciparum Dd2 growth, SYBR Green, 72 h; activity, negative = inhibition: at 28.9 µM (top of the series) unless noted; series mostly up to 28.9 µM
Summary of the method: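 Readout: SYBR Green fluorescence, 485 nm excitation, 535 nm emission, after ~16 h lysis at 37C. Before that, Dd2-infected red cells (2.5% hematocrit) grew 72 h with compound, 29 uM top final concentration.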
Potency is read from the fitted curve at half-maximal effect; tags tell the direction and shape of the fitted curve.

SMILES	Potency	activity, negative = inhibition
COCCNC(=O)[C@H]1C[C@H](Oc2ccccc2)CN1Cc1cccc(C)c1	inconclusive: 17.8 µM [inhibitor, single point]	
COCCNC(=O)C[C@@H]1O[C@H](CNCc2cccc(Cl)c2)[C@@H](O)[C@H]1O	inactive	
Cc1ccc(C(=O)NCc2nc(-c3ccccc3)no2)cc1N1CCNC1=O	inactive	
CN(C)C(=O)C1CN(C(=O)c2ccncc2)CC12CCOCC2 (configuration not stated)	inactive	
COc1ccccc1CNC(=O)C1CCN(S(=O)(=O)c2ccc3c(c2)CCCN3C(C)=O)CC1	inconclusive: 10 µM [inhibitor, single point]	
CC(C)c1ccc(NC(=O)CSc2nc3ccccc3nc2Cc2ccccc2)cc1	inconclusive: 10 µM [inhibitor, partial curve, poor fit]	
COC1C(=O)N(c2cccc(F)c2)C12CCN(C(=O)Nc1ccccc1F)CC2 (configuration not stated)	inconclusive: 10 µM [inhibitor, single point]	
Cc1cn2nc(C(=O)NCCCc3ccccc3)cc2c(=O)[nH]1	active: 7.94 µM	
Cc1noc([C@@H]2CN(C(=O)CCc3ccccc3)C[C@H]2CO)n1	inactive	
C[C@H]1[C@@H]2[C@@H](O)C([C@H](C)C(=O)N3CCCC3)CC[C@@]2(C)CC[C@@H]1NC(=O)COc1ccccc1 (some centres not stated)	inconclusive: 10 µM [inhibitor, single point]	
O=C(c1ccc(Cl)cc1)N1CCC(n2cc(-c3nc(-c4ccccc4)no3)nn2)CC1	inactive	
O=C(CSc1nc2c([nH]c3ccccc32)c(=O)n1-c1cccc(C(F)(F)F)c1)N1CCc2ccccc21	inconclusive: 14.1 µM [inhibitor, single point]	
COc1ccnc(-c2nnc3ccc(N4C[C@@H](C)O[C@@H](C)C4)nn23)c1	inactive	
CCOc1ccc(N(CC)C(=O)c2nn(-c3ccc(OC)cc3)c(=O)c3c2c2ccccc2n3C)cc1	active: 3.98 µM	
COc1ccc(-c2nc(C(C)C)nc3c2CN([S+](=O)([O-])c2cccs2)CC3)cc1	active: 5.01 µM	
COc1cc2c(cc1OC1CCCC1)NC(=O)C21CCN(Cc2nccn2C)CC1	inconclusive: 2.82 µM [inhibitor, full curve]	
Cc1cc(=O)n(CC(=O)Nc2ccccc2C)c(-c2ccc(F)cc2)n1	inconclusive: 12.6 µM [inhibitor, partial curve, poor fit]	
CC(C)(Oc1nn(Cc2cccc(Cl)c2)c2ccccc12)C(=O)N1CCN(CCO)CC1	inconclusive: 1.26 µM [inhibitor, partial curve, poor fit]	
COc1ccc(-c2c(C)nn3c(C(F)(F)F)cc(-c4ccccc4)nc23)cc1	inconclusive: 17.8 µM [inhibitor, single point]	
O=C(c1ccc(C(F)(F)F)cc1)N1CCc2nc(C3CC3)nc(-c3ccc(Cl)cc3)c2C1	inactive	
O=C(NCc1ccco1)c1ccc2c(c1)N(Cc1c(F)cccc1Cl)C(=O)c1ccccc1S2	inconclusive: 1.58 µM [inhibitor, full curve, poor fit]	
CNC(=O)CCn1ncc2cc(OCc3ccccc3-c3cncc(OC)c3)ccc21	inconclusive: 3.55 µM [inhibitor, full curve, poor fit]	
Clc1ccc(C2Cn3nnc(-c4nc(C5CC5)no4)c3CO2)cc1 (configuration not stated)	inconclusive: 3.55 µM [inhibitor, single point]	

SMILES	Potency	activity, negative = inhibition
COC(=O)CC1Oc2ccc(Cl)cc2-n2cc(-c3ccccc3)nc21 (configuration not stated)	inconclusive: 3.55 µM [inhibitor, single point]	
O=C(c1n[nH]c2ccccc12)N1C[C@@H](CO)[C@H](c2ccccn2)C1	inconclusive: 3.98 µM [inhibitor, full curve, poor fit]	
Oc1c(C(c2ccccc2)N2CCC(O)CC2)sc2nc(-c3ccco3)nn12 (configuration not stated)	inactive	
C[C@H]1CCCN1C(=O)c1nnc(COc2cccc(C(F)(F)F)c2)n1-c1cccnc1	inactive	
Clc1ccccc1C1(c2ccnc(NCc3ccccc3)n2)CCNCC1	active: 4.47 µM	
Cc1cc(CN2CCC3(CC2)CN(C2CCC2)CC3CO)n(C)n1 (configuration not stated)	inactive	
Cc1ccc(Cl)cc1N1CCN(CCCNC(=O)c2ccc3nc(N4CCCCC4)sc3c2)CC1	inactive	
COCCN1C(=O)c2ccccc2C(C(=O)Nc2ccc(OC)cc2)C12CCCC2 (configuration not stated)	inconclusive: 12.6 µM [inhibitor, single point]	
CN(Cc1ccccc1)C(=O)c1nc(-c2ccc(Cl)cc2)n2c1CCCCC2	inconclusive: 10 µM [inhibitor, single point]	
COc1ccc(Nc2c3c(nc4ccc(NC(=O)c5ccc(F)cc5)cc24)CCCC3)cc1OC	active: 3.98 µM	
COc1cc2c(cc1OCC1CC1)NC(=O)C21CCN(C(=O)Cc2ccccc2)CC1	inactive	
CCn1c(CN2CCCCC2)nc2cc(NC(=O)c3cc(OC)c(OC)c(OC)c3)ccc21	inconclusive: 11.2 µM [inhibitor, single point]	
CCNC(=O)C1N(C(C)C)C(=O)C12CCCC2 (configuration not stated)	inactive	
CCCCOc1cccc(C(=O)N(Cc2ccc(C)o2)c2ccccn2)c1	inconclusive: 7.94 µM [inhibitor, partial curve, poor fit]	
O=C(c1ccccn1)C1CCCN(C(=O)c2cnc(-c3cccnc3)nc2)C1 (configuration not stated)	inactive	
COCCN[C@@H]1C[C@@H]2c3[nH]c4ccccc4c3C[C@@H](C(=O)OC)N2[C@H](c2cccc(OC)c2)C1	active: 5.01 µM	
COC[C@@H]1CN(Cc2cc(C)nn2C)C[C@H]1C(=O)NC1CC1	inactive	
CCOCCCNC(=O)c1c(C)noc1-c1ccc(OC(F)(F)F)cc1	inactive	
COCCN1C(=O)Cc2ccccc2C1C(=O)NCc1ccc(N2CCCCC2)cc1 (configuration not stated)	inconclusive: 17.8 µM [inhibitor, single point]	
Cc1ccc(S(=O)(=O)Nc2nc3n(n2)C(c2ccc(F)cc2)C=C(c2ccccc2)N3)cc1 (configuration not stated)	inactive	
Cc1nccn1CC(=O)N1CCCn2cc(-c3cccc(C#N)c3)nc21	inconclusive: 17.8 µM [inhibitor, single point]	
O=C(Nc1ccccc1)N[C@H]1C[C@H]2C(=O)NC[C@@H](CCC(=O)N3CCN(c4ccccc4)CC3)N2C1	inconclusive: 11.2 µM [inhibitor, single point]	
Cc1ccccc1-n1nc(C)c2c1NC(=O)CSC2c1ccccc1C(F)(F)F (configuration not stated)	inconclusive: 12.6 µM [inhibitor, single point]	

SMILES	Potency	activity, negative = inhibition
COc1ccc(Cn2c(C(=O)O)c(CNCCc3cc(OC)ccc3OC)c3ccc(C)cc32)cc1	active: 8.91 µM	
Cn1ccc(C(=O)N2CC3ON=C(C(=O)N4CCCC4)C3C2)n1 (configuration not stated)		inconclusive: -39% [inhibitor]
Cc1ccc2c(c1)C(c1ccccc1)N(C(=O)Cc1ccc(F)cc1)CC(=O)N2 (configuration not stated)	inconclusive: 17.8 µM [inhibitor, single point]	
COc1ccc(CCC(=O)N2CCCCCCN(C)C(=O)[C@@H]3CCC[C@@H]32)cc1	inconclusive: 7.08 µM [inhibitor, partial curve]	
COC[C@@H]1CN(C(=O)c2cc3ccccc3[nH]2)C[C@H]1c1nc(C)no1	inconclusive: 11.2 µM [inhibitor, partial curve, poor fit]	
O=C(O)CCn1ncc2cc(OC3CCN(C(=O)COc4ccccc4)CC3)ccc21	inconclusive: 15.8 µM [inhibitor, single point]	
O=C(NCc1ccncc1)C1CCN(C(=O)c2ncn3c2COC(c2ccc(F)cc2)C3)CC1 (configuration not stated)	inactive	
COc1ccc(NC(=O)c2oc3ccc(S(=O)(=O)N4CCOCC4)cc3c2C)cc1	inconclusive: 7.94 µM [inhibitor, partial curve, poor fit]	
Cc1ccc(N2CC(C)Cn3c2nc2c3c(=O)n(Cc3cccc(Cl)c3)c(=O)n2C)cc1 (configuration not stated)	inactive	
O=C1CC(c2ccccc2)N(C(=O)CNS(=O)(=O)c2cccc3cccnc23)CCCCCCN1 (configuration not stated)	inactive	
COCCOC1CCOC2(CCN(C(=O)c3nccc4ccccc34)CC2)C1 (configuration not stated)	inactive	
CC[C@H]1CN(C(=O)c2ccnc(Cl)c2)CC[C@H]1CC(=O)N1CCC(C(N)=O)CC1	inactive	
O=S(=O)(Cc1ccccc1)N1CCC(n2cnnc2C2CC2)CC1	inconclusive: 3.16 µM [inhibitor, full curve]	
Cc1cn2nc(C(=O)N3CCN(c4ccccn4)CC3)cc2c(N2CCCC2)n1	inconclusive: 2.82 µM [inhibitor, single point]	
O=C1NCc2ccccc2CC12CCN(CC1CCCCC1)C2 (configuration not stated)	inconclusive: 0.631 µM [inhibitor, single point]	
COCCO[C@H]1C(=O)N(C2CCN(Cc3ccc(C#N)cc3)CC2)[C@H]1c1ccncc1	inactive	
CCn1cc(C(=O)N2CCN(c3cccc(C)c3C)CC2)c2cc(OC)c(OC)cc2c1=O	inconclusive: 10 µM [inhibitor, single point]	
CCCCN(CC)CCCNC(=O)c1nn(C)c2c1CSc1ccccc1-2	inconclusive: 5.62 µM [inhibitor, partial curve]	
COc1ccccc1N1CCN(C[C@H]2CN3CC[C@H]2C[C@@H]3CNC(=O)c2ccc3c(c2)OCO3)CC1	inconclusive: 11.2 µM [inhibitor, single point]	
COC(=O)[C@@H]1Cc2c([nH]c3ccccc23)[C@H]2C[C@@H](N3CCOCC3)C[C@@H](c3ccc(OC(F)(F)F)cc3)N21	inconclusive: 3.55 µM [inhibitor, single point]	
CCOc1cc(=O)n2c(c1C(=O)NCc1cccnc1)CCCCC2	inactive	
